# Results from PubChem BioAssay (Tox21).
# Several values for one entry are separate records, joined by “and”; a condition that tells them apart may be missing. Equal entries are not always repeated. Inconclusive means that the source gave no clear call. Such entries were picked first, then a sample of the others. A potency beside an inconclusive call is a rough fit, not a confirmed value. Where a structure was tested more than once in an assay, its records may differ in their call. Activity calls are given as the source filed them. Unless noted, the call rests on the fitted dose curve; in most records, active means well fitted curve in the direction sought with a large enough effect in the repeat runs; inconclusive means weak or mixed curves; inactive means no such curve, though single readings can be large; an effect the other way counts as inactive or inconclusive.
# Experiments:
# [1] = qHTS assay to identify small molecule agonists of the peroxisome proliferator-activated receptor delta (PPARd) signaling pathway - cell viability counter screen (AID 743211); settings: PPARd-bla HEK293H viability, CellTiter-Glo luminescence, 17 h; activity change, negative = cytotoxicity: at 62.6 µM (top of the series); further: nearly all actives have a fitted effect of over 55% in size; on activity change, negative = cytotoxicity: on the % scale 0 is the no-effect control and ±100 the full control effect
# How it was run: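 Viability of GeneBLAzer PPARd UAS-bla HEK293H cells was assessed after 17 h compound incubation at 37C, using CellTiter-Glo reagent added after the reporter read and luminescence recorded 30 min later.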
# [2] = biological target: Bile acid receptor (Homo sapiens) (UniProt Q96RI1); experiment: qHTS assay to identify small molecule agonists of the farnesoid-X-receptor (FXR) signaling pathway (AID 743220; active means well fitted activation curve with a large enough effect in the signal ratio in the repeat runs, not every such curve was filed as active; inconclusive means weak or mixed curves, or effect the other way; the % refers to the signal ratio; on activation: on the % scale 0 is the no-effect control and ±100 the full control effect); settings: HEK293T FXR-UAS-bla, beta-lactamase FRET ratio, 16 h; activation: at 62.6 µM (top of the series) unless noted
# How it was run: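 FXR-UAS-bla HEK 293T cells carrying a UAS-driven beta-lactamase reporter were plated for 5 h at 37C/5% CO2, then exposed to DMSO-dissolved Tox21 10K compounds for 16 h at 37C. A LiveBLAzer B/G FRET substrate was loaded for 2 h at room temperature before fluorescence reading.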
# [3] = qHTS assay to identify small molecule agonists of the farnesoid-X-receptor (FXR) signaling pathway - cell viability counter screen (AID 743218); settings: FXR-bla HEK293T viability, CellTiter-Glo luminescence, 16 h; viability change, negative = cytotoxic: at 62.6 µM (top of the series) unless noted; further: nearly all actives have a fitted effect of over 45% in size
# How it was run: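 Luminescence from CellTiter-Glo, read after 30 min at RT, reports viability of GeneBLAzer FXR-UAS-bla HEK 293T cells treated 16 h with compounds in the wells used for the beta-lactamase reporter.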
# [4] = biological target: Vitamin D3 receptor (Homo sapiens) (UniProt P11473); experiment: qHTS assay to identify small molecule agonists of the vitamin D receptor (VDR) signaling pathway (AID 743222; calls by dose curve; on activation: on the % scale 0 is the no-effect control and ±100 the full control effect); settings: HEK293T VDR-UAS-bla, beta-lactamase FRET ratio, 16 h; activation: at 63.5 µM (top of the series) unless noted
# How it was run: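 Beta-lactamase reporter readout (LiveBLAzer B/G FRET, 2 h RT) in VDR-bla cells after 16 h compound treatment at 37C, 5% CO2; cells pre-incubated 4 h before pin transfer of DMSO solutions.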
# [5] = biological target: Vitamin D3 receptor (Homo sapiens) (UniProt P11473); experiment: qHTS assay to identify small molecule antagonists of the vitamin D receptor (VDR) signaling pathway (AID 743223; active means well fitted inhibition curve with a large enough effect in the signal ratio in the repeat runs, not every such curve was filed as active; inconclusive means weak or mixed curves, or effect the other way; inactive means no such curve, though single readings can be large or run the other way; the % refers to the signal ratio; on activity change, negative = inhibition: on the % scale 0 is the no-effect control and ±100 the full control effect); settings: VDR-UAS-bla HEK293T, beta-lactamase FRET ratio, 16 h; activity change, negative = inhibition: at 61 µM (top of the series) unless noted
# How it was run: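 Fluorescence from LiveBLAzer B/G FRET substrate, read after 2 h at room temperature, reflects beta-lactamase reporter activity in VDR-bla cells treated 16 h at 37C with compounds and agonist 1alpha,25-dihydroxyvitamin D3 (3 nM final).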
# [6] = biological target: Peroxisome proliferator-activated receptor delta (Homo sapiens) (UniProt Q03181); experiment: qHTS assay to identify small molecule agonists of the peroxisome proliferator-activated receptor delta (PPARd) signaling pathway (AID 743212; calls by dose curve); settings: HEK293H PPARd-UAS-bla, beta-lactamase FRET ratio, 17 h; activation: at 62.6 µM (top of the series) unless noted
# How it was run: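 Tox21 library screened in GeneBLAzer PPARd UAS-bla HEK293H cells. After compound treatment at 37 C, a FRET-based beta-lactamase substrate was applied for 2 h and fluorescence recorded.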
# [7] = qHTS assay to identify small molecule antagonists of the peroxisome proliferator-activated receptor delta (PPARd) signaling pathway - cell viability counter screen (AID 743213); settings: PPARd-bla HEK293H viability, CellTiter-Glo luminescence, 17 h; viability change, negative = cytotoxic: at 62 µM (top of the series) unless noted; further: nearly all actives have a fitted effect of over 50% in size
# How it was run: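 In this counter screen, HEK293H cells carrying a UAS-beta-lactamase reporter are co-treated with test compounds and 300 nM L165041 (final) for 17 h at 37 C; cell viability is quantified by CellTiter-Glo luminescence.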
# [8] = biological target: Bile acid receptor (Homo sapiens) (UniProt Q96RI1); experiment: qHTS assay to identify small molecule antagonists of the farnesoid-X-receptor (FXR) signaling pathway (AID 743217; active means well fitted inhibition curve with a large enough effect in the signal ratio in the repeat runs, not every such curve was filed as active; inconclusive means weak or mixed curves, or effect the other way; inactive means no such curve, though single readings can be large or run the other way; the % refers to the signal ratio); settings: HEK293T FXR-UAS-bla, beta-lactamase ratio, CDCA-stimulated, 16 h; activity change, negative = inhibition: at 62.6 µM (top of the series) unless noted
# How it was run: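 Read-out: beta-lactamase FRET fluorescence (LiveBLAzer B/G substrate, 2 h, room temperature) in GeneBLAzer FXR-UAS-bla HEK 293T cells. Compounds were co-dosed with 50 uM chenodeoxycholic acid (final) and incubated 16 h at 37 °C.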
# [9] = qHTS assay to identify small molecule antagonists of the farnesoid-X-receptor (FXR) signaling pathway - cell viability counter screen (AID 743221; active means well fitted cell-killing curve with a large enough effect in the repeat runs, not every such curve was filed as active; inconclusive means weak or mixed curves, or effect the other way; inactive means no such curve, though single readings can be large or run the other way; further: nearly all actives have a fitted effect of over 50% in size); settings: FXR-bla HEK293T viability, CellTiter-Glo luminescence, 16 h; activity change, negative = cytotoxicity: at 62.6 µM (top of the series)
# How it was run: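 Quantitative HTS of the Tox21 10K library run in parallel with the beta-lactamase reporter read. HEK 293T cells carrying a UAS-driven bla reporter got compound and 50 uM CDCA (final) for 16 h; ATP-based luminescence followed.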
# [10] = biological target: Peroxisome proliferator-activated receptor delta (Homo sapiens) (UniProt Q03181); experiment: qHTS assay to identify small molecule antagonists of the peroxisome proliferator-activated receptor delta (PPARd) signaling pathway (AID 743215; active means well fitted inhibition curve with a large enough effect in the signal ratio in the repeat runs, not every such curve was filed as active; inconclusive means weak or mixed curves, or effect the other way; inactive means no such curve, though single readings can be large or run the other way; the % refers to the signal ratio;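 further: cells stimulated with agonist L165041 at 300 nM final during compound exposure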); settings: HEK293H PPARd-UAS-bla, beta-lactamase FRET ratio, antagonist, 17 h; ratio activity, negative = inhibition: at 62 µM (top of the series) unless noted
# How it was run: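 HEK293H GeneBLAzer PPARd UAS-bla reporter cells; cpd + L165041 300 nM final, 17 h 37 C; LiveBLAzer B/G FRET substrate 2 h RT; fluorescence intensity read-out. Antagonist mode.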
# Potency means the concentration at half of the fitted maximal effect; tags describe the fitted curve by direction and shape or compound fluorescence and quenching.
# Chain of UniProt Q03181 (Q03181 whole entry, looked up): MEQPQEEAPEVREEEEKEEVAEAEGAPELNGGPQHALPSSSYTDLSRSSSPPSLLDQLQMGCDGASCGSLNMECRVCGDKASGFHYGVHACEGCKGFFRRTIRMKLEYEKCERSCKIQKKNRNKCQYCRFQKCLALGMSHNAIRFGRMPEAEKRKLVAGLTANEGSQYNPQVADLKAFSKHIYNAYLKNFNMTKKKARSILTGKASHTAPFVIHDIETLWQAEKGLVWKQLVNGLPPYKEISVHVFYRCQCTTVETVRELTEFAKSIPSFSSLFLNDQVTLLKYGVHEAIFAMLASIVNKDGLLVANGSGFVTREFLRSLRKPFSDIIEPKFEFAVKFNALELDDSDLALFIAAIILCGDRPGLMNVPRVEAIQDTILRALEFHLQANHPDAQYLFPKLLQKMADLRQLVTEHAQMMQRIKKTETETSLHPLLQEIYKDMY
# Chain of UniProt P11473 (P11473 whole entry, looked up): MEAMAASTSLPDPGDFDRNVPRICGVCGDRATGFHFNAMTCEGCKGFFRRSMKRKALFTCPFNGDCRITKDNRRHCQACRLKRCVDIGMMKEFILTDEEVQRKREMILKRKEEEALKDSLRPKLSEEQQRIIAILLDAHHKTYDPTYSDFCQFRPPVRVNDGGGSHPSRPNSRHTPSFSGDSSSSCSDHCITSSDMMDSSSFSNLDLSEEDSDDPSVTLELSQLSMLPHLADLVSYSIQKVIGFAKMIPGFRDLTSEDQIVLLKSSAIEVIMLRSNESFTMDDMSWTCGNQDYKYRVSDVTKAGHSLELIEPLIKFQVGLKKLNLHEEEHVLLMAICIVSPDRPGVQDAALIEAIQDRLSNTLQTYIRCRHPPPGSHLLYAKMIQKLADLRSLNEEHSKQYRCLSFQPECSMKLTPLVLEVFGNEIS
# Chain of UniProt Q96RI1 (Q96RI1 whole entry, looked up): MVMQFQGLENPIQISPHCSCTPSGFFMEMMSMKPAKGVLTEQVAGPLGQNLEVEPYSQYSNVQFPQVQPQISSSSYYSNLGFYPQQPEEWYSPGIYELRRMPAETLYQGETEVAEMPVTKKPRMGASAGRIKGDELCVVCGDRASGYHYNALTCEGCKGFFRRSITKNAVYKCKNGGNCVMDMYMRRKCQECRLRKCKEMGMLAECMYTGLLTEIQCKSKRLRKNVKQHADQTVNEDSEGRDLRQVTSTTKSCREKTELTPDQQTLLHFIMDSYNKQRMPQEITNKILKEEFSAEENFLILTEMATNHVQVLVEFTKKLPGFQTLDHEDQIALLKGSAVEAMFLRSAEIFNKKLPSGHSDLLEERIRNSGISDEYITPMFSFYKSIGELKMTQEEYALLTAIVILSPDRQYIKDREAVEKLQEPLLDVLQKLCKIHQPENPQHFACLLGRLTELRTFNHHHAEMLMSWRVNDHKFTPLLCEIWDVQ
structure (smiles),measurement,setting,value
CC(C)(C)OC(=O)c1ccccc1C(=O)O,"activity change, negative = cytotoxicity",[1],inconclusive: -32.3% [cytotoxic]
same,Potency,[2],inactive
CCN(CC)C(C)=O,Potency,[3],"inconclusive: 0.0072 µM [rising, full curve, poor fit]"
same,Potency,[4],inactive
same,Potency,[5],inactive
COC(=O)CC#N,activation,[4],inconclusive: -3.81% [at 81.1 µM]
same,"activity change, negative = inhibition",[5],inconclusive: 31.2% [at 78.8 µM]
C=CCc1ccc(OC)c(OC)c1,Potency,[1],"inconclusive: 8.71 µM [rising, partial curve]"
same,Potency,[3],"inconclusive: 0.124 µM [rising, full curve, poor fit]"
same,activation,[4],inconclusive: 4.84% [at 81.1 µM]
CC(=O)OCC(=O)[C@@]1(O)[C@H](OC(C)=O)C[C@H]2[C@@H]3CCC4=CC(=O)C=C[C@]4(C)[C@@]3(F)[C@@H](O)C[C@@]21C,Potency,[6],inactive
same,Potency,[7],inactive
same,Potency,[8],inactive
same,Potency,[3],inactive
O=C(CCCN1CCC(O)(c2ccc(Cl)cc2)CC1)c1ccc(F)cc1,Potency,[1],"inconclusive: 54.9 µM [cytotoxic, single point] and inconclusive: 26.6 µM [cytotoxic, partial curve]"
same,Potency,[7],active: 30.9 µM and active: 21.1 µM
same,Potency,[3],active: 30.9 µM
same,Potency,[2],"inconclusive: 54.9 µM [rising, partial curve, poor fit]"
CN(C)c1ccc(C(c2ccccc2)c2ccc(N(C)C)cc2)cc1,Potency,[7],inactive
CC1(C)NC(=O)NC1=O,Potency,[3],"inconclusive: 0.553 µM [rising, full curve, poor fit]"
same,Potency,[9],"inconclusive: 22 µM [falling, partial curve, poor fit]"
OCCCCCCO,Potency,[6],inactive
same,Potency,[2],inactive
same,activation,[4],inconclusive: -3.78% [at 81.1 µM]
CCC(C)(O)CCCC(C)C (stereo not drawn),Potency,[7],"inconclusive: 34.8 µM [cytotoxic, partial curve, poor fit]"
same,Potency,[8],"inconclusive: 8.71 µM [fluorescent, partial curve, poor fit]"
CN1Cc2c(N)cccc2C(c2ccccc2)C1 (stereo not drawn),Potency,[1],"inconclusive: 6.68 µM [cytotoxic, single point]"
C=C(C)C(=O)OCC(C)O (stereo not drawn),Potency,[1],inactive
same,Potency,[6],"inconclusive: 47.9 µM [rising, single point]"
same,"ratio activity, negative = inhibition",[10],inconclusive: -4.11%
same,Potency,[4],inconclusive: 53.8 µM [activator]
same,activation,[4],inconclusive: -1.26%
Cc1ccc(C)c(O)c1C,Potency,[10],inactive
c1c[nH]cn1,Potency,[7],inactive
same,"ratio activity, negative = inhibition",[10],inconclusive: 2.84% [at 80.4 µM]
O=C1CCC(=O)N1Cl,Potency,[6],inactive
same,Potency,[10],inactive
CCO/C([O-])=N/c1c[n+](N2CCOCC2)no1,Potency,[10],inactive
CC(C)NCCCC1(C(N)=O)c2ccccc2-c2ccccc21,Potency,[7],"inconclusive: 0.0596 µM [rising, full curve, poor fit]"
same,"ratio activity, negative = inhibition",[10],inconclusive: 31.5%
CNC(=O)c1cnn(-c2nc(N)c3ncn([C@@H]4O[C@H](CO)[C@@H](O)[C@H]4O)c3n2)c1,Potency,[5],"inconclusive: 0.0012 µM [cytotoxic, full curve]"
CCc1cccc2c(CCO)c[nH]c12,Potency,[6],inconclusive: 33.5 µM
O=C1O[C@@H]2[C@@H](O)[C@H](O)O[C@@H]2[C@H]1O,Potency,[2],inactive
same,Potency,[5],inactive
CCCCCCCCCCCCCCCBr,Potency,[7],inactive
same,Potency,[10],inactive
same,Potency,[8],inactive
same,"activity change, negative = inhibition",[5],inconclusive: 26.1%
CCC(C)(C)CC,Potency,[1],"inconclusive: 57.6 µM [cytotoxic, single point]"
same,Potency,[6],"inconclusive: 22.9 µM [rising, partial curve, poor fit]"
same,Potency,[7],active: 51.3 µM
same,Potency,[10],"inconclusive: 64.6 µM [rising, partial curve, poor fit]"
same,Potency,[4],inconclusive: 57.6 µM [single point]
